Some of the results follow. At the low end of the ranking the order means little.

In this assay the target is GST-SBP-SLBP (stem-loop binding protein) (UniProt Q14493). As to the kind of experiment: targeted RNA Bind-n-Seq.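 Further: DESeq read counts versus GST-SBP nonspecific binding control pulldown.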 Particulars: RBNS binding buffer: 25 mM Tris pH 7.5, 150 mM KCl, 3 mM MgCl2, 0.1% Tween, 0.5 mg/mL BSA, 1 mM DTT; 27 nM protein, 750 pM RNA pool; temperature not stated; high values mean tight binding.
For the sequence “GGUCACGUCUCAAUCAACUCAAUCUCCAGGGAAAGCCCUGGCUUACUCAACAGCUCGCAGUCAAG”, the binding signal (log2 fold change) was 0.196.
“GGUCACGUCUCAAUCAACUCUCCAGAGGGGGGGAAAACCCCUUUACCCUCAACCUCAACAGCUCGCAGUCAAG”: the binding signal (log2 fold change) was 0.0404.
Then “GGUCACGUCUCAAUCAACUCAAUUUCAGGAGUUUUCUCCUGUUUAUUCAACAGCUCGCAGUCAAG”, with -0.178.
The value for “GGUCACGUCUCAAUCAACUCUCUAGAGGGGGGGAAAACCCCUUUACCCUCAUAUUCAACAGCUCGCAGUCAAG” was -0.195.
The value for “GGUCACGUCUCAAUCAACUCAAAAGAGGGGGGGAAAACCCCUUUGCCCUCACCUUCAACAGCUCGCAGUCAAG” was -0.0613.
“GGUCACGUCUCAAUCAACUCCCUCGAGGGGGGGAAAACCCCUUUACCCUCAAUGUCAACAGCUCGCAGUCAAG”: the binding signal (log2 fold change) was 0.0529.
Consider “GGUCACGUCUCAAUCAACUCUACUCCCAGGGAAAACCCUGGUUUUCUCAACAGCUCGCAGUCAAG”, for which the binding signal (log2 fold change) is -0.0829.
For the sequence “GGUCACGUCUCAAUCAACUCAACUCCCAGGGAAAGCCCUGGUAUUCUCAACAGCUCGCAGUCAAG”, the binding signal (log2 fold change) is -0.021.
Then “GGUCACGUCUCAAUCAACUCUUUCCCCAGGGAAAGCCCUGGUAUACUCAACAGCUCGCAGUCAAG”, with -0.0682; and “GGUCACGUCUCAAUCAACUCAUCUUCAGGAGUUUUCUCCUGCAAAUUCAACAGCUCGCAGUCAAG”, with -0.0735.
Then “GGUCACGUCUCAAUCAACUCAACAGAGGGGGGGAAAACCCCUUUACCCUCACAAUCAACAGCUCGCAGUCAAG”, with -0.136.
Then “GGUCACGUCUCAAUCAACUCCUUCGAGGGGGGGAAAACCCCUUUACCCUCUCUAUCAACAGCUCGCAGUCAAG”, with -0.601; and “GGUCACGUCUCAAUCAACUCAUUCUCCAGGGAAACCCCUGGCUUUCUCAACAGCUCGCAGUCAAG”, with -0.166; and “GGUCACGUCUCAAUCAACUCUUUUCCAGGAGUUUUCUCCUGCUUAUUCAACAGCUCGCAGUCAAG”, with -0.0487.
As to “GGUCACGUCUCAAUCAACUCAUUCCCCAGGGAAAGCCCUGGUAUAUUCAACAGCUCGCAGUCAAG”, the binding signal (log2 fold change) turned out to be 0.0877.
Then “GGUCACGUCUCAAUCAACUCCAACGAGGGGGGGAAAACCCCUUUGCCCUCAAUAUCAACAGCUCGCAGUCAAG”, with 0.225.
As for “GGUCACGUCUCAAUCAACUCAACAGAGGGGGGGAAAACCCCUUUACCCUCCACAUCAACAGCUCGCAGUCAAG”, the binding signal (log2 fold change) is -0.0237.
Take “GGUCACGUCUCAAUCAACUCAUUCCCCAGGGAAAACCCUGGCAUUCUCAACAGCUCGCAGUCAAG”: the binding signal (log2 fold change) is -0.255.
In the case of “GGUCACGUCUCAAUCAACUCGUUUUCAGGAGUUUUCUCCUGUUUAUUCAACAGCUCGCAGUCAAG”, the binding signal (log2 fold change) is 0.00593.
With “GGUCACGUCUCAAUCAACUCUAUCCCCAGGGAAAUCCCUGGCUUUUUCAACAGCUCGCAGUCAAG”, the binding signal (log2 fold change) was -0.246.
The value for “GGUCACGUCUCAAUCAACUCUUCCCCAGGAGUUUACUCCUGCUAUUUCAACAGCUCGCAGUCAAG” was -0.0424; that for “GGUCACGUCUCAAUCAACUCCCUCGAGGGGGGGAAAACCCCUUUACCCUCAUUAUCAACAGCUCGCAGUCAAG” was 0.395.
The value for “GGUCACGUCUCAAUCAACUCACUCGAGGGGGGGAAAACCCCUUUACCCUCACUCUCAACAGCUCGCAGUCAAG” was -0.216; that for “GGUCACGUCUCAAUCAACUCUUUUCCCAGGGAAAACCCUGGUUAUCUCAACAGCUCGCAGUCAAG” was -0.0606; that for “GGUCACGUCUCAAUCAACUCUUACGAGGGGGGGAAAACCCCUUUACCCUCACACUCAACAGCUCGCAGUCAAG” was 0.321.
For “GGUCACGUCUCAAUCAACUCAUUCCCCAGGGAAAUCCCUGGCAUUUUCAACAGCUCGCAGUCAAG”, the binding signal (log2 fold change) is -0.0495.
Consider “GGUCACGUCUCAAUCAACUCUACUCCAGGAGUUUACUCCUGCAUUUUCAACAGCUCGCAGUCAAG”, for which the binding signal (log2 fold change) stood at 0.0643.
Regarding “GGUCACGUCUCAAUCAACUCAUUCUCAGGAGUUUUCUCCUGCUAAUUCAACAGCUCGCAGUCAAG”, the binding signal (log2 fold change) was 0.0806.
As to “GGUCACGUCUCAAUCAACUCAACUCCCAGGGAAAACCCUGGUAAAUUCAACAGCUCGCAGUCAAG”, the binding signal (log2 fold change) was -0.125.
The value for “GGUCACGUCUCAAUCAACUCUUUCCCAGGAGUUUUCUCCUGCUUUUUCAACAGCUCGCAGUCAAG” was 0.151; that for “GGUCACGUCUCAAUCAACUCACACGAGGGGGGGAAAACCCCUUUACCCUCUUUAUCAACAGCUCGCAGUCAAG” was 0.0022; that for “GGUCACGUCUCAAUCAACUCAAUUCCCAGGGAAAUCCCUGGCAUAGUCAACAGCUCGCAGUCAAG” was 0.0974.
For “GGUCACGUCUCAAUCAACUCAUUUUCCAGGGAAACCCCUGGCUAUCUCAACAGCUCGCAGUCAAG”, the binding signal (log2 fold change) is -0.0352.
As to “GGUCACGUCUCAAUCAACUCUACUCCAGGAGUUUUCUCCUGUUUUUUCAACAGCUCGCAGUCAAG”, the binding signal (log2 fold change) is -0.0683.
In the case of “GGUCACGUCUCAAUCAACUCAUUAGAGGGGGGGAAAACCCCUUUACCCUCCAAAUCAACAGCUCGCAGUCAAG”, the binding signal (log2 fold change) is -0.0743.
As to “GGUCACGUCUCAAUCAACUCUACUUCCAGGGAAAGCCCUGGCUAACUCAACAGCUCGCAGUCAAG”, the binding signal (log2 fold change) was -0.0191.

Values taken from paper PMC5892938.
